# Some of the results follow.
# B1: Surfactant Protein D (Human); Neck + Carbohydrate Recognition Domain (NCRD) (Homo sapiens) (protein)
# chain: MLLFLLSALVLLTQPLGYLEAEMKTYSHRTMPSACTLVMCSSVESGLPGRDRDGREGPRGEKGDPGLPGAAGQAGMPGQAGPVGPKGDNGSVGEPGPKGDTGPSGPPGPPGVPGPAGREGALGKQGNIGPQGKPGPKGEAGPKGEVGAPGMQGSAGARGLAGPKGERGVPGERGVPGNTGAAGSAGAMGPQGSPGARGPPGLKGDKGIPGDKGAKGESGLPDVASLRQQVEALQGQVQHLQAAFSQYKKVELFPNGQSVGEKIFKTAQFVKPFTEAQLLCTQAGGQLASPRSAAENAALQQLVVAKNEAAFLSMTDSKTEGKFTYPTGESLVYSNWAPGEPNDAGGSEDCVEIFTNGKWNDRACGEKRLVVCEF
# Legend:
# Assay in all cases: glycan array binding signal (z-score within array); higher = stronger binding
# Details in all cases: glycan notation: IUPAC condensed, linker removed; mutation: D325A
# [1] = molecular target: Neu5Ac(a2-3)Gal(b1-4)[Fuc(a1-3)]GlcNAc
# How it was run: (§1)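 Glycan array data were curated from 3228 arrays in the Consortium for Functional Glycomics database and kept only where the protein sequence was available. Glycan names were converted to IUPAC-condensed notation, and columns mapping to the same glycan were averaged. The binding signal is a within-array Z-score, averaged across arrays of the same protein sequence at different concentrations or buffers and across linkers. Negative Z-scores can be read as non-binding.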
# [2] = molecular target: Neu5Ac(a2-3)Gal(b1-4)[Fuc(a1-3)]GlcNAc(b1-3)Gal
# How it was run: as §1
# [3] = molecular target: Neu5Ac(a2-3)Gal(b1-4)[Fuc(a1-3)]GlcNAc(b1-3)Gal(b1-4)GlcNAc
# How it was run: as §1
# [4] = molecular target: Neu5Ac(a2-3)Gal(b1-4)[Fuc(a1-3)]GlcNAc(b1-3)Gal(b1-4)[Fuc(a1-3)]GlcNAc(b1-3)Gal(b1-4)[Fuc(a1-3)]GlcNAc
# How it was run: as §1
# [5] = molecular target: Neu5Ac(a2-3)Gal(b1-4)[Fuc(a1-3)]GlcNAc(b1-6)[Gal(b1-3)]GalNAc
# How it was run: as §1
# [6] = molecular target: Neu5Ac(a2-3)Gal(b1-4)[Fuc(a1-3)]GlcNAc6S
# How it was run: as §1
# [7] = molecular target: Neu5Ac(a2-3)Gal6S(b1-4)GlcNAc
# How it was run: as §1
# [8] = molecular target: Neu5Ac(a2-3)Gal6S(b1-4)[Fuc(a1-3)]GlcNAc
# How it was run: as §1
# [9] = molecular target: Neu5Ac(a2-3)GalNAc
# How it was run: as §1
# [10] = molecular target: Neu5Ac(a2-3)GalNAc(b1-4)GlcNAc
# How it was run: as §1
# [11] = molecular target: Neu5Ac(a2-3)[GalNAc(b1-4)]Gal(b1-4)Glc
# How it was run: as §1
# [12] = molecular target: Neu5Ac(a2-3)[GalNAc(b1-4)]Gal(b1-4)GlcNAc
# How it was run: as §1
# [13] = molecular target: Neu5Ac(a2-3)[Neu5Ac(a2-6)]GalNAc
# How it was run: as §1
# [14] = molecular target: Neu5Ac(a2-6)Gal
# How it was run: as §1
# [15] = molecular target: Neu5Ac(a2-6)Gal(b1-4)Glc
# How it was run: as §1
# [16] = molecular target: Neu5Ac(a2-6)Gal(b1-4)GlcNAc
# How it was run: as §1
# [17] = molecular target: Neu5Ac(a2-6)Gal(b1-4)GlcNAc(b1-2)Man(a1-3)[Gal(b1-4)GlcNAc(b1-2)Man(a1-6)]Man(b1-4)GlcNAc(b1-4)GlcNAc
# How it was run: as §1
# [18] = molecular target: Neu5Ac(a2-6)Gal(b1-4)GlcNAc(b1-2)Man(a1-3)[GlcNAc(b1-2)Man(a1-6)]Man(b1-4)GlcNAc(b1-4)GlcNAc
# How it was run: as §1
# [19] = molecular target: Neu5Ac(a2-6)Gal(b1-4)GlcNAc(b1-2)Man(a1-3)[GlcNAc(b1-2)Man(b1-4)GlcNAc(b1-2)Man(a1-6)]Man(b1-4)GlcNAc(b1-4)GlcNAc
# How it was run: as §1
# [20] = molecular target: Neu5Ac(a2-6)Gal(b1-4)GlcNAc(b1-2)Man(a1-3)[Neu5Ac(a2-6)Gal(b1-4)GlcNAc(b1-2)Man(a1-6)]Man(b1-4)GlcNAc(b1-4)GlcNAc
# How it was run: as §1
# [21] = molecular target: Neu5Ac(a2-6)Gal(b1-4)GlcNAc(b1-2)Man(a1-6)[Gal(b1-4)GlcNAc(b1-2)Man(a1-3)]Man(b1-4)GlcNAc(b1-4)GlcNAc
# How it was run: as §1
# [22] = molecular target: Neu5Ac(a2-6)Gal(b1-4)GlcNAc(b1-2)Man(a1-6)[GlcNAc(b1-2)Man(a1-3)]Man(b1-4)GlcNAc(b1-4)GlcNAc
# How it was run: as §1
# [23] = molecular target: Neu5Ac(a2-6)Gal(b1-4)GlcNAc(b1-3)Gal(b1-4)GlcNAc
# How it was run: as §1
# [24] = molecular target: Neu5Ac(a2-6)Gal(b1-4)GlcNAc(b1-3)Gal(b1-4)[Fuc(a1-3)]GlcNAc(b1-3)Gal(b1-4)[Fuc(a1-3)]GlcNAc
# How it was run: as §1
# [25] = molecular target: Neu5Ac(a2-6)Gal(b1-4)GlcNAc6S
# How it was run: as §1
# [26] = molecular target: Neu5Ac(a2-6)GalNAc
# How it was run: as §1
# [27] = molecular target: Neu5Ac(a2-6)GalNAc(b1-4)GlcNAc
# How it was run: as §1
# [28] = molecular target: Neu5Ac(a2-8)Neu5Ac
# How it was run: as §1
# [29] = molecular target: Neu5Ac(a2-8)Neu5Ac(a2-3)Gal(b1-4)Glc
# How it was run: as §1
# [30] = molecular target: Neu5Ac(a2-8)Neu5Ac(a2-3)[GalNAc(b1-4)]Gal(b1-4)Glc
# How it was run: as §1
# [31] = molecular target: Neu5Ac(a2-8)Neu5Ac(a2-8)Neu5Ac
# How it was run: as §1
# [32] = molecular target: Neu5Ac(a2-8)Neu5Ac(a2-8)Neu5Ac(a2-3)Gal(b1-4)Glc
# How it was run: as §1
# [33] = molecular target: Neu5Ac(a2-8)Neu5Ac(a2-8)Neu5Ac(a2-3)[GalNAc(b1-4)]Gal(b1-4)Glc
# How it was run: as §1
# [34] = molecular target: Neu5Ac(a2-8)Neu5Ac(a2-8)Neu5Ac(a2-8)Neu5Ac(a2-3)[GalNAc(b1-4)]Gal(b1-4)Glc
# How it was run: as §1
# [35] = molecular target: Neu5Ac(b2-6)Gal(b1-4)GlcNAc
# How it was run: as §1
# [36] = molecular target: Neu5Ac(b2-6)GalNAc
# How it was run: as §1
# [37] = molecular target: Neu5Ac9Ac(a2-6)Gal(b1-4)GlcNAc
# How it was run: as §1
# [38] = molecular target: Neu5Gc(a2-3)Gal(b1-3)GlcNAc
# How it was run: as §1
# [39] = molecular target: Neu5Gc(a2-3)Gal(b1-3)[Fuc(a1-4)]GlcNAc
# How it was run: as §1
# [40] = molecular target: Neu5Gc(a2-3)Gal(b1-4)Glc
# How it was run: as §1
# [41] = molecular target: Neu5Gc(a2-3)Gal(b1-4)GlcNAc
# How it was run: as §1
# [42] = molecular target: Neu5Gc(a2-3)Gal(b1-4)[Fuc(a1-3)]GlcNAc
# How it was run: as §1
# [43] = molecular target: Neu5Gc(a2-6)Gal(b1-4)GlcNAc
# How it was run: as §1
# [44] = molecular target: Neu5Gc(a2-6)GalNAc
# How it was run: as §1
# [45] = molecular target: Neu5Gc(b2-6)Gal(b1-4)GlcNAc
# How it was run: as §1
binder,measurement,setting,value
B1,glycan array binding signal (z-score),[1],-0.204
same,glycan array binding signal (z-score),[2],-0.275
same,glycan array binding signal (z-score),[3],-0.228
same,glycan array binding signal (z-score),[4],0.115
same,glycan array binding signal (z-score),[5],-0.178
same,glycan array binding signal (z-score),[6],-0.242
same,glycan array binding signal (z-score),[7],-0.273
same,glycan array binding signal (z-score),[8],-0.273
same,glycan array binding signal (z-score),[9],-0.272
same,glycan array binding signal (z-score),[10],-0.27
same,glycan array binding signal (z-score),[11],-0.27
same,glycan array binding signal (z-score),[12],-0.229
same,glycan array binding signal (z-score),[13],-0.274
same,glycan array binding signal (z-score),[14],-0.269
same,glycan array binding signal (z-score),[15],-0.269
same,glycan array binding signal (z-score),[16],-0.258
same,glycan array binding signal (z-score),[17],-0.252
same,glycan array binding signal (z-score),[18],-0.258
same,glycan array binding signal (z-score),[19],-0.262
same,glycan array binding signal (z-score),[20],-0.249
same,glycan array binding signal (z-score),[21],-0.264
same,glycan array binding signal (z-score),[22],-0.241
same,glycan array binding signal (z-score),[23],-0.266
same,glycan array binding signal (z-score),[24],0.549
same,glycan array binding signal (z-score),[25],-0.273
same,glycan array binding signal (z-score),[26],-0.184
same,glycan array binding signal (z-score),[27],-0.256
same,glycan array binding signal (z-score),[28],-0.245
same,glycan array binding signal (z-score),[29],-0.271
same,glycan array binding signal (z-score),[30],-0.229
same,glycan array binding signal (z-score),[31],-0.273
same,glycan array binding signal (z-score),[32],-0.273
same,glycan array binding signal (z-score),[33],-0.211
same,glycan array binding signal (z-score),[34],-0.267
same,glycan array binding signal (z-score),[35],-0.274
same,glycan array binding signal (z-score),[36],-0.268
same,glycan array binding signal (z-score),[37],-0.266
same,glycan array binding signal (z-score),[38],-0.27
same,glycan array binding signal (z-score),[39],-0.267
same,glycan array binding signal (z-score),[40],-0.269
same,glycan array binding signal (z-score),[41],-0.273
same,glycan array binding signal (z-score),[42],-0.27
same,glycan array binding signal (z-score),[43],-0.274
same,glycan array binding signal (z-score),[44],-0.27
same,glycan array binding signal (z-score),[45],-0.258
